From PubChem BioAssay AID488969 (Vanderbilt High Throughput Screening Facility, 2010)
The full ranking holds about 110,000 compounds; the median of “z-score” is about -0.1, and the highest 2% start at about 2. This is one part of the list. Active and inactive are the calls of the source.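 Rule for the calls: active = z-score in the third read window above 3 or below -3; inactive = the rest.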

molecular target: Metabotropic glutamate receptor 8 (Rattus norvegicus) (UniProt P70579); assay: rat mGluR8 modulators via GIRK flux, primary screen, cell-based, thallium flux, HTS (AID 488969); details: HEK293 rat mGluR8, GIRK (G protein-gated inwardly rectifying potassium channel) thallium flux, FluoZin2; at 10 µM; stronger effect = higher value; submaximal glutamate (EC20) added with thallium
UniProt P70579, sequence (P70579 whole entry, looked up): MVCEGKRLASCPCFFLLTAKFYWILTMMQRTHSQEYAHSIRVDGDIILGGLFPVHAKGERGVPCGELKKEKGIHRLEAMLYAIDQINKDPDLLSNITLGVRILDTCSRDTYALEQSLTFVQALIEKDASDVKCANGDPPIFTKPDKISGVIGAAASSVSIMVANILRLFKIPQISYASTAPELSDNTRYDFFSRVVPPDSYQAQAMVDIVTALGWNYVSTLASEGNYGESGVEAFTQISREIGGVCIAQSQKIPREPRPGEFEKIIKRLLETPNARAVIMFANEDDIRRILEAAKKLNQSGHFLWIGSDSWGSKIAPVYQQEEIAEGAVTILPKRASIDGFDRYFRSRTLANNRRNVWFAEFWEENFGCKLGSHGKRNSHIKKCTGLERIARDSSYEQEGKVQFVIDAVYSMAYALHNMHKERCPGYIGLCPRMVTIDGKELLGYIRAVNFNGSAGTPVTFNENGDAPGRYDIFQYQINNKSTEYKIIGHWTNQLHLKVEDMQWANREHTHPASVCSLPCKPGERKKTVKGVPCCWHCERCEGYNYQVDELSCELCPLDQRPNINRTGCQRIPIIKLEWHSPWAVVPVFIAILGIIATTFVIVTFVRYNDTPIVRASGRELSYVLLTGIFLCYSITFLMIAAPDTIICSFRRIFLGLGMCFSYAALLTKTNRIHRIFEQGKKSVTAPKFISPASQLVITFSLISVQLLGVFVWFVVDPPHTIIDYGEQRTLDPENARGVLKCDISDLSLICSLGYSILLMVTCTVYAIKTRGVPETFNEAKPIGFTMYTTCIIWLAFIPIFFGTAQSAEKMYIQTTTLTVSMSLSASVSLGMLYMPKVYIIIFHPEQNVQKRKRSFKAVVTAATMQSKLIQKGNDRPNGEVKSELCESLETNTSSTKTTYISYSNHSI

Compound	z-score
CN(CCNC(=O)C1CCN(S(=O)(=O)c2cnc[nH]2)CC1)Cc1ccccc1	0.122
Cc1cccc(NC(=O)CCc2c(C)nc3ncnn3c2C)n1	0.666
CCOC(=O)c1cnc2c(C(F)(F)F)cccc2c1N1CCOCC1	-0.0502
COC(=O)CSc1nnc(-c2sc3ccccc3c2Cl)o1	0.302
COc1ccc(-c2ccc(-c3noc(-c4cccs4)n3)c(OC)n2)cc1	-0.0896
CNCCOc1ccccc1-c1ccccc1	-0.398
Cc1cccc(-n2ncc3c(NCCc4ccc(S(N)(=O)=O)cc4)ncnc32)c1	active: 8.89
Cc1nn(-c2ccccc2)c(Cl)c1/C=C/C(=O)c1ccc(O)cc1	0.0167
NC(=O)c1ccccc1OCC(=O)NC12CC3CC(CC(C3)C1)C2	-0.0638
CCCCOC(=O)c1ccc(NC(=O)C2CCCO2)cc1 (stereo unspecified)	-0.0259
O=C(c1cccc(S(=O)(=O)N2CCCC2)c1)c1nnc(-c2ccncc2)o1	0.87
COC(=O)NNC(=O)C(C)Oc1ccc(Cl)cc1Cl (stereo unspecified)	0.139
Cc1ccc(Cl)c(NC(=S)N(CCCN2CCOCC2)Cc2ccco2)c1	-0.227
Cc1ccc(C(=O)N/C(=C\c2cccs2)C(=O)NCCCn2ccnc2)cc1C	0.219
COc1ccc(-c2cnc3c(c2)CCC3(C#N)C#N)cc1	0.416
CCOC(=O)C1CCCN(Cc2cccc(Cl)c2)C1 (stereo unspecified)	0.258
Cc1ccc(C)c(CS(=O)(=O)c2cn(CC(=O)N3CCCCC3)c3ccccc23)c1	0.152
COc1ccc(NC(=O)c2oc3ccccc3c2NC(=O)c2ccco2)c(OC)c1	-0.246
CCCCOc1ccc(-c2nnn(C(C)(C)C(=O)OC)n2)cc1	-0.0425
Cc1ccc(NC(=O)CN(C)S(=O)(=O)c2cccc3nsnc23)cc1Cl	0.0103
CCN(CC)C(=O)C1=C(C)Nc2nc3ccccc3n2C1c1cccc(OC)c1 (stereo unspecified)	-0.275
COc1ccc([N+](=O)[O-])cc1NC(=O)Cn1ccsc1=N	-2.33
CCCC(=O)Nc1ccc(C(=O)NNC(=O)COc2ccc(Br)c(C)c2)cc1	-0.127

Compound	z-score
COC(=O)c1sccc1NC(=O)c1cccnc1	0.00083
CN(C)c1cc[nH]c(=O)c1C#N	-0.277
Cn1nnnc1SCC(=O)Nc1ccccc1N1CCCCC1	0.626
O=C(c1ccc2c(c1)OCO2)N1CCc2ccccc2C1	-0.016
Cc1cc(-c2nnc(SCc3cccnc3)o2)no1	-0.0905
Cc1ccc2nc(-c3ccc(NS(C)(=O)=O)cc3)cc(-c3ccccc3)c2c1	-0.184
O=C(Nc1cc(C(F)(F)F)ccc1Cl)c1cc(C2CC2)on1	0.161
O=C(O/N=C(\c1ccccc1)c1ccccn1)c1ccc(Cl)c(Cl)c1	1.31
Cc1ccc(-c2ccc(=O)[nH]n2)cc1	0.0654
COc1ccc(N2CCN(C(=O)CSc3ncccc3-c3nc4ccccc4[nH]3)CC2)cc1	-0.349
N/C(Cc1cccc2ccccc12)=N\OC(=O)Cc1cccs1	-0.179
O=C(Cn1cnc2sc(-c3ccccc3)cc2c1=O)NCc1ccco1	0.204
CCOC(=O)N/N=C/c1c(C)nn(-c2ccccc2Cl)c1Cl	1.92
CCOc1cc(NC(=O)c2ccco2)c(OCC)cc1NC(=O)Cc1ccc(OC)c(OC)c1	-0.0364
CCc1nnc(NC(=O)c2cccc(NC(=O)C(C)C)c2)s1	0.867
O=C1Nc2ccccc2/C1=N/c1sc2c(c1C(=O)NCCc1ccccc1)CCCC2	0.975
COc1cc(/C=C/C(=O)N2C(=O)c3cccc(N)c3C2=O)cc(OC)c1OC	-0.0749
CCCc1nc2ccc(NC(=O)c3cccs3)cc2c(=O)n1Cc1ccccc1Cl	-0.354
COc1cccc(-c2cc(C(=O)NCCCn3ccnc3)no2)c1	-0.58
Cn1c(SCC(=O)NCC2CCCO2)nnc1-c1c[nH]c2ccccc12 (stereo unspecified)	-0.0829
Nc1cc(=O)[nH]c(SCC(=O)Nc2ccc(S(=O)(=O)N3CCOCC3)cc2)n1	0.0872
CCOC(=O)Cn1nc(-c2ccc(C)cc2)ccc1=O	-0.0724
CCOC(=O)c1cc2ccc(OC)cc2oc1=O	-0.275

Compound	z-score
O=c1[nH]c(=O)n(Cc2ccco2)c2c1C(C(F)(F)F)(C(F)(F)F)N=C(CCC1CCCCC1)N2	0.103
O=C(Nc1cccc(F)c1)C1CCN(C(=O)c2ccc(Br)cc2)CC1	-0.354
O=C(CSc1ccc(-c2ccc(F)cc2)nn1)N1CCN(c2ccccc2)CC1	-0.139
Cc1cc(C)nc(NC(=O)c2c(-c3ccccc3Cl)noc2C)n1	0.316
O=C(NCc1ccco1)C1CCN(S(=O)(=O)c2cccc3cccnc23)CC1	0.152
COC(=O)c1sc2ccccc2c1-n1cccc1C(=O)C(=O)Nc1ccc(F)cc1	-0.206
O=C(c1ccco1)N1CCN(c2ncnc3c2oc2ccccc23)CC1	-0.221
O=C(c1cc(Cl)c(=O)n(Cc2ccccc2)c1)N1CCOCC1	-0.0137
Clc1cccc(Cl)c1Cn1c(-c2cccnc2Cl)nc2ccccc21	0.0546
COc1ncnc2c1NC1=C(S2)C(=NCCC(=O)O)CC(C)(C)C1	-0.837
CC(O)CNc1nc2sc3c(c2c(=O)n1CCc1ccccc1)CCCCC3 (stereo unspecified)	-0.35
COc1ccc(/C=C/C(=O)Nc2cc(C(F)(F)F)ccc2Cl)cc1	-0.669
CS(=O)(=O)c1ccc2nc(N)sc2c1	-0.166
Cn1c(NN)nc2sc3c(c2c1=O)CC(C)(C)OC3	-0.243
COc1ccc(C2=NN(C(=O)CSc3nc4ccccc4s3)C(c3ccc(OC)cc3)C2)cc1 (stereo unspecified)	-0.104
CCOC(=O)C1CCN(c2c(NCc3ccc(C(=O)NC4CCCC4)cc3)c(=O)c2=O)CC1	0.122
N#Cc1c(N)nc2c(c1N)CC(CO)O2 (stereo unspecified)	0.442
Cc1c(NC(=O)c2cc(CC(C)C)on2)c(=O)n(-c2ccccc2)n1C	0.425
CC1=C(C(=O)Nc2ccc(Br)cc2)C(c2ccco2)NC(=O)N1 (stereo unspecified)	-0.0578
CC(C)(C)C(=O)NC(=S)Nc1ccc(F)cc1	-0.105
Nc1ccc(C23CC4CC(CC(O)(C4)C2)C3)cc1	-0.112
Cc1ccc(NC(=O)CC2SC3=NCCCN3C2=O)c(C)c1 (stereo unspecified)	-0.162
CCOC(=O)N1CCN(C(=O)CN(c2ccc(OCc3ccccc3)cc2)S(C)(=O)=O)CC1	0.0453

Compound	z-score
Cc1cccn2c(=O)c3cc(C(=O)NCC4CCCO4)c(=N)n(CCN4CCOCC4)c3nc12 (stereo unspecified)	-0.225
Cc1ccc(S(=O)(=O)N2CCCCC2)cc1NC(=O)Cc1c[nH]c2ccccc12	-0.0663
COC(=O)c1cc2c(s1)-c1ccccc1CC2	-0.0379
CC1CCN(CCc2nc3cc(NS(=O)(=O)c4ccc(F)cc4)ccc3n2C)CC1	-0.615
Cn1c(=O)c2[nH]cnc2n(-c2ccccc2)c1=O	-0.142
COCCCNS(=O)(=O)c1ccc2c3c(cccc13)C(=O)S2	-0.0688
CCOC(=O)Nc1ccc2c(c1)N(C(=O)CCN1CCN(CCO)CC1)c1ccccc1CC2	-0.118
COc1cc(=O)n(C)c2ccccc12	0.577
Oc1ccc(-c2csc(Nc3cccnc3)n2)cc1	-0.116
Cc1cc(=O)c(C(=O)O)cn1Nc1ccc(Cl)cc1	-0.553
CCC(c1nnnn1Cc1ccccc1)N(Cc1cc2cc(OC)ccc2[nH]c1=O)CC1CCCO1 (stereo unspecified)	-0.388
COc1ccccc1Oc1ccc(S(=O)(=O)Nc2cccnc2)cc1	0.347
Cc1cc(NC(=O)c2ccc(F)cc2F)n(-c2nc3ccccc3[nH]2)n1	0.0238
COc1ccc(CCNC(=O)C2CCN(S(=O)(=O)c3cccc4nonc34)CC2)cc1OC	-0.0875
COc1ccc(C)c2sc(NC(=O)C3=COCCO3)nc12	-0.0797
Cc1cc(Cl)ccc1NC(=S)N1CCN(Cc2ccccc2)CC1	0.0495
O=C(/C=C/c1cccc(Cl)c1)Nc1ncccn1	-0.216
CC(NC(=O)COc1ccc(/C=N/NS(=O)(=O)c2ccccc2)cc1)c1ccccc1 (stereo unspecified)	-0.17
Cc1cccc(NC(=S)NCC2CCCO2)c1 (stereo unspecified)	0.0836
Cc1cc(OCc2nn[nH]n2)c2c(C)c(CC(=O)O)c(=O)oc2c1	1.62
COc1cc(C)ccc1OCCOc1cc(C)ccc1Cl	-0.0859
Nc1c(-c2cccs2)cnn1-c1nc(-c2ccc(F)cc2)cs1	-0.78
CCOC(=O)CSc1nnc(Cc2cc(=O)[nH]c(=O)[nH]2)n1-c1ccc(Cl)cc1	-0.0375

Compound	z-score
COc1ccc(Cn2c(-c3ccco3)nc3oc4ccccc4c(=O)c3c2=O)cc1	0.403
CCc1ccc(C2CC(c3ccccc3)n3ncnc3N2)cc1 (stereo unspecified)	-0.471
O=C(CCNC(=O)Cn1cnc2ccccc2c1=O)NCC1COc2ccccc2O1 (stereo unspecified)	-0.166
COc1ccc(CCNC(=O)c2ccc(-c3ccc([N+](=O)[O-])cc3)o2)cc1OC	-0.544
CN(CC(O)COc1ccc(OCC(O)CN(C)C2CCCCC2)cc1)C1CCCCC1 (stereo unspecified)	1.64
COc1ccc(Nc2c(C)cccc2C)cc1	-0.447
O=C(Nc1ncc2c(n1)-c1ccccc1OC2)c1ccc(Cl)cc1Cl	-0.199
CCOc1ccccc1-n1c(SCC(=O)N2CCCC2)nnc1-c1ccc(O)cc1	-1.47
N#C/C(=N\Nc1ccc(Cl)cc1)C(=N)N1CCCCC1	0.186
O=C(NNC1=C(C(=O)C(F)(F)F)CCC1)c1cccc(O)c1	0.0367
Cc1c(Cl)cccc1NC(=O)CN1CCC(NC(=O)C2CCCCC2)CC1	0.0323
CCOc1ccc(C(=O)NC(=S)N2CCN(c3ccc(C(F)(F)F)cc3[N+](=O)[O-])CC2)cc1	0.854
COc1ccc(N2CCN(C(=S)Nc3cc(C)cc(C)c3)CC2)cc1	0.06
COc1ccccc1NC(=O)CSc1c2c(nc3ccccc13)CCC2	0.169
Cc1cc(C)cc(N(CC(=O)NCC2CCCO2)S(=O)(=O)c2c(C)noc2C)c1 (stereo unspecified)	-0.496
O=Cc1cn(-c2ccccc2)nc1-c1cc2cc(O)ccc2oc1=O	0.061
CC(=O)C1=C(O)C(=O)N(CCCn2ccnc2)C1c1ccc(C)cc1 (stereo unspecified)	-0.414
COC(=O)c1ccc(NC(=O)C(C)N2C(=O)c3ccccc3C2=O)cc1 (stereo unspecified)	0.169
CCOC(=O)CSc1nc2ccccc2c(=O)n1CCC(=O)NCCc1ccc(OC)c(OC)c1	-0.859
